# The list shows a part of the results.
# Experiments:
# Experiment in all cases: glycan array binding signal (z-score within array); higher = stronger binding
# Conditions in all cases: glycan notation: IUPAC condensed, linker removed
# [1] = target: Neu5Ac(a2-3)Gal(b1-4)GlcNAc(b1-6)GalNAc
# Procedure, shortened: (§1)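 The Consortium for Functional Glycomics database supplied 3228 glycan arrays, of which those lacking an available protein sequence were dropped. The binding signal, a within-array Z-score, was averaged across arrays of the same protein sequence and across linkers. Negative scores can be read as non-binding.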
# [2] = target: Neu5Ac(a2-3)Gal(b1-4)GlcNAc(b1-6)[Gal(b1-3)]GalNAc
# Procedure, shortened: as §1
# [3] = target: Neu5Ac(a2-3)Gal(b1-4)GlcNAc(b1-6)[Neu5Ac(a2-3)Gal(b1-3)]GalNAc
# Procedure, shortened: as §1
# [4] = target: Neu5Ac(a2-3)Gal(b1-4)GlcNAc6S
# Procedure, shortened: as §1
# [5] = target: Neu5Ac(a2-3)Gal(b1-4)[Fuc(a1-3)]GlcNAc
# Procedure, shortened: as §1
# [6] = target: Neu5Ac(a2-3)Gal(b1-4)[Fuc(a1-3)]GlcNAc(b1-2)Man
# Procedure, shortened: as §1
# [7] = target: Neu5Ac(a2-3)Gal(b1-4)[Fuc(a1-3)]GlcNAc(b1-3)Gal
# Procedure, shortened: as §1
# [8] = target: Neu5Ac(a2-3)Gal(b1-4)[Fuc(a1-3)]GlcNAc(b1-3)Gal(b1-4)GlcNAc
# Procedure, shortened: as §1
# [9] = target: Neu5Ac(a2-3)Gal(b1-4)[Fuc(a1-3)]GlcNAc(b1-3)Gal(b1-4)[Fuc(a1-3)]GlcNAc(b1-3)Gal(b1-4)[Fuc(a1-3)]GlcNAc
# Procedure, shortened: as §1
# [10] = target: Neu5Ac(a2-3)Gal(b1-4)[Fuc(a1-3)]GlcNAc(b1-3)GalNAc
# Procedure, shortened: as §1
# [11] = target: Neu5Ac(a2-3)Gal(b1-4)[Fuc(a1-3)]GlcNAc(b1-6)[Gal(b1-3)]GalNAc
# Procedure, shortened: as §1
# [12] = target: Neu5Ac(a2-3)Gal(b1-4)[Fuc(a1-3)]GlcNAc(b1-6)[Neu5Ac(a2-3)Gal(b1-3)]GalNAc
# Procedure, shortened: as §1
# [13] = target: Neu5Ac(a2-3)Gal(b1-4)[Fuc(a1-3)]GlcNAc6S
# Procedure, shortened: as §1
# [14] = target: Neu5Ac(a2-3)Gal6S(b1-4)GlcNAc
# Procedure, shortened: as §1
# [15] = target: Neu5Ac(a2-3)Gal6S(b1-4)[Fuc(a1-3)]GlcNAc
# Procedure, shortened: as §1
# [16] = target: Neu5Ac(a2-3)GalNAc
# Procedure, shortened: as §1
# [17] = target: Neu5Ac(a2-3)GalNAc(b1-4)GlcNAc
# Procedure, shortened: as §1
# [18] = target: Neu5Ac(a2-3)[GalNAc(b1-4)]Gal(b1-4)Glc
# Procedure, shortened: as §1
# [19] = target: Neu5Ac(a2-3)[GalNAc(b1-4)]Gal(b1-4)GlcNAc
# Procedure, shortened: as §1
# [20] = target: Neu5Ac(a2-3)[GalNAc(b1-4)]Gal(b1-4)GlcNAc(b1-3)GalNAc
# Procedure, shortened: as §1
# [21] = target: Neu5Ac(a2-3)[Neu5Ac(a2-6)]GalNAc
# Procedure, shortened: as §1
# [22] = target: Neu5Ac(a2-6)Gal
# Procedure, shortened: as §1
# [23] = target: Neu5Ac(a2-6)Gal(b1-3)GlcNAc(b1-3)[Gal(b1-4)GlcNAc(b1-6)]Gal(b1-4)Glc
# Procedure, shortened: as §1
# [24] = target: Neu5Ac(a2-6)Gal(b1-4)Glc
# Procedure, shortened: as §1
# [25] = target: Neu5Ac(a2-6)Gal(b1-4)GlcNAc
# Procedure, shortened: as §1
# [26] = target: Neu5Ac(a2-6)Gal(b1-4)GlcNAc(b1-2)Man
# Procedure, shortened: as §1
# [27] = target: Neu5Ac(a2-6)Gal(b1-4)GlcNAc(b1-2)Man(a1-3)Man(b1-4)GlcNAc(b1-4)GlcNAc
# Procedure, shortened: as §1
# [28] = target: Neu5Ac(a2-6)Gal(b1-4)GlcNAc(b1-2)Man(a1-3)[Gal(b1-4)GlcNAc(b1-2)Man(a1-6)]Man(b1-4)GlcNAc(b1-4)GlcNAc
# Procedure, shortened: as §1
# [29] = target: Neu5Ac(a2-6)Gal(b1-4)GlcNAc(b1-2)Man(a1-3)[GlcNAc(b1-2)Man(a1-6)]Man(b1-4)GlcNAc(b1-4)GlcNAc
# Procedure, shortened: as §1
# [30] = target: Neu5Ac(a2-6)Gal(b1-4)GlcNAc(b1-2)Man(a1-3)[GlcNAc(b1-4)][Neu5Ac(a2-6)Gal(b1-4)GlcNAc(b1-2)Man(a1-6)]Man(b1-4)GlcNAc(b1-4)GlcNAc
# Procedure, shortened: as §1
# [31] = target: Neu5Ac(a2-6)Gal(b1-4)GlcNAc(b1-2)Man(a1-3)[Man(a1-6)]Man(b1-4)GlcNAc(b1-4)GlcNAc
# Procedure, shortened: as §1
# [32] = target: Neu5Ac(a2-6)Gal(b1-4)GlcNAc(b1-2)Man(a1-3)[Neu5Ac(a2-3)Gal(b1-4)GlcNAc(b1-2)Man(a1-6)]Man(b1-4)GlcNAc(b1-4)GlcNAc
# Procedure, shortened: as §1
# [33] = target: Neu5Ac(a2-6)Gal(b1-4)GlcNAc(b1-2)Man(a1-3)[Neu5Ac(a2-6)Gal(b1-4)GlcNAc(b1-2)Man(a1-6)]Man(b1-4)GlcNAc(b1-4)GlcNAc
# Procedure, shortened: as §1
# [34] = target: Neu5Ac(a2-6)Gal(b1-4)GlcNAc(b1-2)Man(a1-3)[Neu5Ac(a2-6)Gal(b1-4)GlcNAc(b1-2)Man(a1-6)]Man(b1-4)GlcNAc(b1-4)[Fuc(a1-6)]GlcNAc
# Procedure, shortened: as §1
# [35] = target: Neu5Ac(a2-6)Gal(b1-4)GlcNAc(b1-2)Man(a1-6)Man(b1-4)GlcNAc(b1-4)GlcNAc
# Procedure, shortened: as §1
# [36] = target: Neu5Ac(a2-6)Gal(b1-4)GlcNAc(b1-2)Man(a1-6)[Gal(b1-4)GlcNAc(b1-2)Man(a1-3)]Man(b1-4)GlcNAc(b1-4)GlcNAc
# Procedure, shortened: as §1
# [37] = target: Neu5Ac(a2-6)Gal(b1-4)GlcNAc(b1-2)Man(a1-6)[GlcNAc(b1-2)Man(a1-3)]Man(b1-4)GlcNAc(b1-4)GlcNAc
# Procedure, shortened: as §1
# [38] = target: Neu5Ac(a2-6)Gal(b1-4)GlcNAc(b1-2)Man(a1-6)[Man(a1-3)]Man(b1-4)GlcNAc(b1-4)GlcNAc
# Procedure, shortened: as §1
# [39] = target: Neu5Ac(a2-6)Gal(b1-4)GlcNAc(b1-2)[Neu5Ac(a2-6)Gal(b1-4)GlcNAc(b1-4)]Man(a1-3)[GlcNAc(b1-4)][Neu5Ac(a2-6)Gal(b1-4)GlcNAc(b1-2)[Neu5Ac(a2-6)Gal(b1-4)GlcNAc(b1-6)]Man(a1-6)]Man(b1-4)GlcNAc(b1-4)GlcNAc
# Procedure, shortened: as §1
# [40] = target: Neu5Ac(a2-6)Gal(b1-4)GlcNAc(b1-2)[Neu5Ac(a2-6)Gal(b1-4)GlcNAc(b1-4)]Man(a1-3)[GlcNAc(b1-4)][Neu5Ac(a2-6)Gal(b1-4)GlcNAc(b1-4)Man(a1-6)]Man(b1-4)GlcNAc(b1-4)GlcNAc
# Procedure, shortened: as §1
# [41] = target: Neu5Ac(a2-6)Gal(b1-4)GlcNAc(b1-2)[Neu5Ac(a2-6)Gal(b1-4)GlcNAc(b1-6)]Man(a1-6)[Neu5Ac(a2-6)Gal(b1-4)GlcNAc(b1-2)Man(a1-3)][GlcNAc(b1-4)]Man(b1-4)GlcNAc(b1-4)GlcNAc
# Procedure, shortened: as §1
# [42] = target: Neu5Ac(a2-6)Gal(b1-4)GlcNAc(b1-3)Gal(b1-3)GlcNAc
# Procedure, shortened: as §1
# [43] = target: Neu5Ac(a2-6)Gal(b1-4)GlcNAc(b1-3)Gal(b1-4)GlcNAc
# Procedure, shortened: as §1
# [44] = target: Neu5Ac(a2-6)Gal(b1-4)GlcNAc(b1-3)Gal(b1-4)GlcNAc(b1-2)Man(a1-3)[Neu5Ac(a2-6)Gal(b1-4)GlcNAc(b1-3)Gal(b1-4)GlcNAc(b1-2)Man(a1-6)]GalNAc
# Procedure, shortened: as §1
# [45] = target: Neu5Ac(a2-6)Gal(b1-4)GlcNAc(b1-3)Gal(b1-4)GlcNAc(b1-3)Gal(b1-4)GlcNAc
# Procedure, shortened: as §1
# [46] = target: Neu5Ac(a2-6)Gal(b1-4)GlcNAc(b1-3)Gal(b1-4)GlcNAc(b1-3)Gal(b1-4)GlcNAc(b1-2)Man(a1-3)[Neu5Ac(a2-6)Gal(b1-4)GlcNAc(b1-3)Gal(b1-4)GlcNAc(b1-3)Gal(b1-4)GlcNAc(b1-2)Man(a1-6)]GalNAc
# Procedure, shortened: as §1
binder,measurement,setting,value
B725 (Bifidobacterium sp) (protein) MNNTTRAVIATAAIGALLIPLAGCGNTTTSSGKTELTVWSWDASIDRAAKSFMKANPDITVKVSNVGSTEETYTALNNAAQAGSGLPDVTLIEYLAIPQFVHSDTLMDLSKVYNTAKLKDTFTPGTWNSVNINGGLYAMPADSGPMAYFYDKDVFDKAGISEPPTTWDEFYEDAKKIRATGSYITSDSGDAGLFNAMMWAMGGHAYKLNDDKLTINIAKDKGAQRFMDLWQKMRDEDLIDVHTKTWTDDWMKSLGDGSIASLISGAWMANNLLQGVPQATGKFRVALLPTIDGTPINGEYGGSGLAITKKIPDGKLDAAKKFVEYVTTNDEGIDARVSNGSFPATTKTLNQKDFLAKTTLRNTDGSDNEFFGGQKYNEIFSQAAKDVTGKWEFLPFEPYARSVYNDNMGSFFAGKTSFRTAADNWQKALKDYAKDQGFTVQ,glycan array binding signal (z-score),[1],-0.229
same,glycan array binding signal (z-score),[2],-0.216
same,glycan array binding signal (z-score),[3],-0.223
same,glycan array binding signal (z-score),[4],-0.222
same,glycan array binding signal (z-score),[5],-0.227
same,glycan array binding signal (z-score),[6],-0.162
same,glycan array binding signal (z-score),[7],-0.224
same,glycan array binding signal (z-score),[8],-0.19
same,glycan array binding signal (z-score),[9],-0.217
same,glycan array binding signal (z-score),[10],-0.193
same,glycan array binding signal (z-score),[11],-0.206
same,glycan array binding signal (z-score),[12],-0.223
same,glycan array binding signal (z-score),[13],-0.234
same,glycan array binding signal (z-score),[14],-0.229
same,glycan array binding signal (z-score),[15],-0.233
same,glycan array binding signal (z-score),[16],-0.229
same,glycan array binding signal (z-score),[17],-0.216
same,glycan array binding signal (z-score),[18],-0.23
same,glycan array binding signal (z-score),[19],-0.23
same,glycan array binding signal (z-score),[20],-0.222
same,glycan array binding signal (z-score),[21],-0.228
same,glycan array binding signal (z-score),[22],-0.222
same,glycan array binding signal (z-score),[23],-0.205
same,glycan array binding signal (z-score),[24],-0.232
same,glycan array binding signal (z-score),[25],-0.21
same,glycan array binding signal (z-score),[26],-0.206
same,glycan array binding signal (z-score),[27],-0.226
same,glycan array binding signal (z-score),[28],-0.213
same,glycan array binding signal (z-score),[29],-0.232
same,glycan array binding signal (z-score),[30],-0.227
same,glycan array binding signal (z-score),[31],-0.229
same,glycan array binding signal (z-score),[32],-0.199
same,glycan array binding signal (z-score),[33],-0.22
same,glycan array binding signal (z-score),[34],-0.217
same,glycan array binding signal (z-score),[35],-0.207
same,glycan array binding signal (z-score),[36],-0.216
same,glycan array binding signal (z-score),[37],-0.23
same,glycan array binding signal (z-score),[38],-0.225
same,glycan array binding signal (z-score),[39],-0.234
same,glycan array binding signal (z-score),[40],-0.212
same,glycan array binding signal (z-score),[41],-0.223
same,glycan array binding signal (z-score),[42],-0.174
same,glycan array binding signal (z-score),[43],-0.216
same,glycan array binding signal (z-score),[44],0.154
same,glycan array binding signal (z-score),[45],-0.185
same,glycan array binding signal (z-score),[46],-0.129
